Measured values from PubChem BioAssay AID485281 (National Center for Advancing Translational Sciences (NCATS), 2010).
The campaign covered roughly 350,000 compounds. About 260 (0.074%) were called active. Inconclusive results, whose numbers are uncertain, are shown with a selection of clear calls. Calls follow the shape of the dose curve; as a rule, active = well fitted inhibition curve with a large enough effect; inconclusive = small, poorly fitted or top-dose-only effect; inactive = no such curve, though single readings can be large or run the other way. Potencies beside an inconclusive call are fits to weak or partial responses and may not hold up.

Each compound was assayed against Ferritin light chain (Equus caballus) (UniProt P02791) (assay: qHTS Assay for Identification of Novel General Anesthetics). Details: apoferritin/1-aminoanthracene competitive binding, fluorescence; activity change, negative = displacement: at 77.5 µM (top of the series).
UniProt P02791, sequence (P02791 whole entry, looked up): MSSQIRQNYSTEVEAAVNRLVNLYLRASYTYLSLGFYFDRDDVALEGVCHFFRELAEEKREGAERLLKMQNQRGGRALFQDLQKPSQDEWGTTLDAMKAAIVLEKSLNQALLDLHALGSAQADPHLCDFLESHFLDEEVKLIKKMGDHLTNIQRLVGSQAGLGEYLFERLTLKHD
Summary of the method: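 In PBS, apoferritin at 10 uM is loaded with 1-AMA from a 50% saturated solution. After 10 min of compound exposure at ambient temperature, reduced 535 nm fluorescence indicates probe displacement.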
% is scaled to controls: 0 for no effect and ±100 for the full control effect; potency is read from the fitted curve at half-maximal effect; tags tell the direction and shape of the fitted curve.
Also: nearly all actives have a fitted effect of over 20% in size.

| Compound | Potency | activity change, negative = displacement |
| --- | --- | --- |
| COc1cccc([C@@]2(O)CCCCC2CN(C)C)c1 (some centres undefined) | inactive | – |
| CN1CCc2nc(SCc3ccccc3Br)c(C#N)cc2C1 | inconclusive: 14.1 µM [inhibitor, partial curve] | – |
| Cc1ccc(-n2cc(CNC(C)Cc3cnccn3)c(-c3cccc(C)c3)n2)cc1 (centres undefined) | inconclusive: 31.6 µM [inhibitor, partial curve] | – |
| COc1c(C)cc(C(=O)C2CCCN(Cc3cccc(O)c3)C2)cc1C (centres undefined) | inconclusive: 25.1 µM [inhibitor, partial curve] | – |
| CCOC(=O)N1CCN(C(=O)Cn2ncc3c4ccccc4n(Cc4ccc(F)cc4)c3c2=O)CC1 | inconclusive: 14.1 µM [inhibitor, partial curve] | – |
| Nc1ccc(C2(c3ccc(N)cc3)CCCCC2)cc1 | inconclusive: 28.2 µM [inhibitor, partial curve] | – |
| Cn1c(O)c(/C=N/NC(=O)c2ccncc2)c(=O)n(C)c1=S | – | inactive: -2.91% |
| Cc1nn(Cc2ccccc2)c(C)c1C(=O)OCC(=O)Nc1ccccc1SCC#N | inconclusive: 39.8 µM [inhibitor, partial curve] | – |
| O=C(/C=C/C=C/c1ccccc1)CC1(O)C(=O)Nc2ccccc21 (centres undefined) | inconclusive: 22.4 µM [inhibitor, partial curve] | – |
| COc1cccc(CSc2nc(-c3ccccc3OC)nc3c2Cc2c(CO)cnc(C)c2O3)c1 | inconclusive: 50.1 µM [inhibitor, single point] | – |
| CC(C)c1cc2c(c(O)c1O)[C@@]1(C(=O)O)CCCC(C)(C)[C@@H]1CC2 | inconclusive: 25.1 µM [inhibitor, partial curve] | – |
| CC(C)c1cccc(C(C)C)c1O | inconclusive: 11.2 µM [inhibitor, partial curve] | – |
| CCOC(=O)c1c(N)n(Cc2ccco2)c2nc3ccccc3nc12 | – | inactive: 632% |
| Oc1c(Br)cc(Br)cc1Oc1ccc(Br)cc1Br | inconclusive: 50.1 µM [inhibitor, single point] | – |
| COc1ccccc1-n1c(-c2ccccc2)nc2ccccc2c1=O | – | inactive: -11.3% |
| Cc1cc(C)n(CCOC(=O)C2C(C=C(Cl)Cl)C2(C)C)n1 (centres undefined) | inconclusive: 44.7 µM [inhibitor, partial curve, poor fit] | – |
| O=[N+]([O-])c1ccc(-c2[se]c3ccccc3c2I)cc1 | inconclusive: 39.8 µM [inhibitor, single point] | – |

| Compound | Potency | activity change, negative = displacement |
| --- | --- | --- |
| O=C1NC(=O)[C@]2(Cc3ccccc3N3CCN(c4ccccc4)CC32)C(=O)N1c1ccccc1 (some centres undefined) | inconclusive: 28.2 µM [inhibitor, partial curve] | – |
| CCN(CC)S(=O)(=O)c1ccc2c(c1)c(=O)c(C(=O)NCc1ccccc1OC)cn2C | inconclusive: 50.1 µM [inhibitor, single point] | – |
| CCOC(=O)c1ccc(N2C(=O)c3[nH]nc(-c4ccccc4)c3C2c2ccc(C(C)C)cc2)cc1 (centres undefined) | inconclusive: 3.16 µM [inhibitor, full curve] | – |
| Cc1ccc(NP(=O)(Oc2ccccc2F)Oc2ccccc2F)cc1 | – | inactive: -11.4% |
| CCC1(CC)CCNC1=O | – | inactive: 4.32% |
| CC(=O)N1c2ccc(S(=O)(=O)N3CCCC(C(=O)Nc4cc(C)cc(C)c4)C3)cc2CC1C (centres undefined) | inconclusive: 39.8 µM [inhibitor, partial curve] | – |
| CCCCCCCC(=O)NC(Oc1ccccc1[N+](=O)[O-])C(Cl)(Cl)Cl (centres undefined) | inconclusive: 22.4 µM [inhibitor, partial curve] | – |
| Cc1cccc(N=Cc2c(O)n(-c3ccccc3C)c(=O)[nH]c2=O)c1 | inconclusive: 31.6 µM [inhibitor, partial curve] | – |
| CN(C)c1ccc(-[n+]2c(-c3ccccc3)cc(-c3ccccc3)cc2-c2ccccc2)cc1 | inconclusive: 20 µM [inhibitor, partial curve] | – |
| CCOc1ccc(CNC(=O)CSc2c3c(nc4cc(Cl)ccc24)CCCC3)cc1 | inconclusive: 28.2 µM [inhibitor, partial curve] | – |
| O=C(Nc1ccccc1OC(=O)N1CCCCC1)N1CCCCC1 | inconclusive: 0.891 µM [inhibitor, full curve, poor fit] | – |
| CCC(C)n1c(=O)[nH]c(C)c(Br)c1=O (centres undefined) | – | inactive: -7.28% |
| N#Cc1c(Cl)c(Cl)c(Cl)c(C#N)c1Cl | inconclusive: 15.8 µM [inhibitor, partial curve] | – |
| CCOC(=O)c1ccc(NC(=O)CSc2ccc(-c3cccnc3)nn2)cc1 | inconclusive: 31.6 µM [inhibitor, single point] | – |
| COC1=CC(=O)O[C@H](/C=C/c2ccc3c(c2)OCO3)C1 | – | inactive: -0.847% |
| Cc1ccc(C(C)C)c(OCC#CCN2CCCC2)c1 | – | inactive: -8.48% |
| Cc1c(NC(NC(=O)CF)C(Cl)(Cl)Cl)c(=O)n(-c2ccccc2)n1C (centres undefined) | – | inactive: -2.99% |
